This note sets out measurements from PubChem BioAssay (NCATS).

The other results are listed elsewhere or left out. Shown are side measurements of this screen, not its main read-out; they come without a call. Compounds called inactive in the main read-out are mostly missing here.

A short description of this test: qHTS Assay for Lipid Storage Modulators (AID 1519). As to conditions: Drosophila S3 cells, BODIPY lipid droplet/cell ratio, laser cytometry; measured here: lipid channel max response; cells loaded with oleic acid. In outline: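 Cells seeded at 5,000 per well were treated with compounds over a concentration series and loaded with oleic acid (400 uM, as added). Lipid droplet fluorescence (488 nm excitation, 500-530 nm channel) was read by laser-scanning cytometry and normalized to 20 uM Triacsin C.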
In general terms: Quantitative high-throughput screening tests each substance at several concentrations.
As for `COc1cccc(Nc2ncc3nc(-c4cccs4)c(=O)n(C[C@H]4CCCO4)c3n2)c1`, the max response is -42.3%.
With `CN(Cc1ccco1)c1ccnc(-c2ccoc2)n1`, the max response was 32.2%.
As for `CC(=O)N1CCC2(CCCN(c3ccc(-c4ccccc4)cc3)C2)CC1`, the figure is -1.98%; as for `O=c1c(CCc2ccccc2)nc2cnc(N3CCNCC3)nc2n1-c1ccccc1`, 32.3%.
On to `Cn1c(=O)c(-c2ccccc2)nc2cnc(Oc3ccccc3)nc21`, for which the max response worked out at 15.7%.
For `COc1cccc(Cn2c(=O)c(C)nc3cnc(N4CCNCC4)nc32)c1` the value was 30.6%.
As for `O=c1c(-c2ccccc2)nc2cncnc2n1Cc1ccccc1Cl`, the figure is 39%.
As for `O=c1c(CCc2ccccc2)nc2cnc(Oc3ccccc3)nc2n1C1CC1`, the figure is 8.48%.
Consider `CC1CC2C3CC(F)C4=CC(=O)C=C[C@@]4(C)[C@@]3(F)C(O)C[C@]2(C)[C@]1(O)C(=O)COC(=O)C(C)(C)C` (stereo not given in full), for which the max response is -35%.
For `O=c1cc(-c2cccc(O)c2)oc2cccc(O)c12` the value was 101%; for `Cc1noc(C)c1-c1nccc(Nc2ccc(F)cc2)n1`, 8.2%; for `COc1ccccc1CNc1ncncc1-c1ccccc1Cl`, 28.2%.
For `CC(=O)[C@]1(O)CCC2C3CC(C)C4=CC(=O)C=CC4(C)[C@@]3(F)C(O)C[C@]21C` (stereo not given in full) the value was 45.7%; for `Cc1cnc(CNc2ncnc3ccc(-c4ccccc4Cl)cc23)cn1`, 22%.
`C=C1C([C@@]2(C)C(OC(C)=O)CC(=O)O[C@@](C)(COC(C)=O)C2CC(=O)OC)C(OC=O)C(OC(=O)C(O)C(C)CC)[C@]2(C)C(c3ccoc3)CC(=O)C12O` (stereo not given in full): the max response is -9%.
For `Cn1cc(-c2nc3cnc(Oc4ccccc4)nc3n(CCC#N)c2=O)c2ccccc21` the value was 11%.
For `Cc1cccc(CNc2cc(-c3ccccc3Cl)ncn2)c1` the value was 13.4%; for `COCCNc1nc(-c2ccccc2C(F)(F)F)nc2ccccc12`, 12.5%.
For `O=c1c(-c2ccc(F)cc2)nc2cnc(Nc3ccccc3)nc2n1Cc1cccs1` the value was -0.351%; for `COc1ccc(-c2nc3cnc(Nc4ccccc4)nc3n(CCC#N)c2=O)cc1`, -35.8%; for `COc1ccc(NC(=O)N2CCCC3(CCN(C(=O)c4cccc(F)c4)CC3)C2)cc1`, 23.8%.
As for `COc1ccc(C(=O)N2CCC[C@@]3(CCN(Cc4cc(C(F)(F)F)cc(C(F)(F)F)c4)C3)C2)cc1`, the max response was 22.9%.
As for `CC(C)[N+]1(C)C2CCC1CC(OC(=O)C(CO)c1ccccc1)C2` (stereo not given), the figure is 35.6%.
For `CC1(C)CC[C@]2(C(=O)O)C(O)C[C@@]3(C)C(=CCC4[C@@]5(C)CCC(O)C(C)(C)C5CC[C@@]43C)C2C1` (stereo not given in full) the value was 39.5%.
As for `O=C(O)[C@H]1C[C@@H](CP(=O)(O)O)CCN1`, the figure is 32%; as for `O=C(c1csnn1)N1CCC2(CC1)CCN(c1ccccn1)CC2`, 35.7%; as for `COc1ccc(NC(=O)N2CC3(CCN(C(=O)c4cnccn4)CC3)C2)cc1`, 23.2%.
As for `O=c1c(-c2ccccc2)nc2cnc(Oc3ccccc3)nc2n1C[C@H]1CCCO1`, the max response was -31.6%.
As for `Fc1ccc(Nc2ccnc(-c3ccc4c(c3)OCO4)n2)cc1`, the figure is 23.7%; as for `N#CCCn1c(=O)c(-c2cc(F)cc(F)c2)nc2cnc(N3CCOCC3)nc21`, 16.7%; as for `C#CCCCCCCCCCCCC(O)CC(O)COC(C)=O` (stereo not given), 39.7%.
For `COc1ccc(-c2nc3cnc(N4CCOCC4)nc3n(CCC#N)c2=O)cc1` the value was 26.9%; for `N#Cc1cccc(NC(=O)N2CCCC3(CCN(C(=O)c4ccncc4)CC3)C2)c1`, 32.9%; for `COCC(=O)N1CCC2(CCCN(C(=O)Nc3cccc(C#N)c3)C2)CC1`, 38.2%.
As for `COC(=O)C1C(O)CC[C@@H]2CN3CCc4c([nH]c5ccccc45)C3C[C@@H]12` (stereo not given in full), the figure is 34%.
For `COc1cc(C(C)=O)cc(OC)c1O`, the max response turned out to be 34.5%.
Turning to `COc1ccc2[nH]cc(CCNc3ncnc4ccc(-c5ccccc5OC)cc34)c2c1`, the max response is -10.7%.
Turning to `COc1cccc(Nc2ncc3nc(-c4ccccc4)c(=O)n(C[C@H]4CCCO4)c3n2)c1`, the max response was -47.2%.
On to `c1cncc(-c2nc(NCCN3CCOCC3)c3ccccc3n2)c1`, for which the max response is 24.4%.
Regarding `COC(=O)CCC(C)C1CCC2C3C(C[C@H](O)C12C)C1(C)CC[C@@H](O)CC1C[C@H]3O` (stereo not given in full), the max response was determined as 29.8%.
